The labels stand for the following.
B1: CPEB3 Ribozyme (parent)
chain: UAACAGGGGGCCACAGCAGAAGCGUUCACGUCGCAGCCCCUGUCAGAUUCUGGUGAAUCUGCGAAUUCUGCUGUAUAUCUC

Read counts are not given, so values of variants with three or more changes are uncertain.

In the series the parent is B1. Put plainly: self-cleavage, relative activity (ratio to wild type); higher = more cleavage; in vitro, sequencing. The method in brief:
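CPEB3 self-cleaving ribozyme mutant libraries were made by rounds of error-prone PCR, barcoded, and transcribed in vitro with T7 RNA polymerase for 5 hours at 37°C. Cleavage occurred during transcription and a 15 min DNase I step before EDTA stop. RNAs were reverse transcribed with template switching and Illumina-sequenced, with DNA sequencing mapping barcodes to variants. Relative activity is the variant's cleaved/total read fraction divided by wild type's (minimum 5 reads), averaged across three batches.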
As to A13G A56G U58A U69C U78A, the self-cleavage came to 0.16.

On to A13G C37U A57G, for which the self-cleavage was 0.68.

Regarding A13G A18U U31C U43C U76A, the self-cleavage was found to be 0.2.

On to A13G U25C U54C, for which the self-cleavage came to 0.31.

A13G A20G A21G C29U U31A C39A A56U: the self-cleavage turned out to be 0.06.

Take A13G A35G U72G U76A: the self-cleavage is 0.5.

With A13G U25C U49A U51C C68U, the self-cleavage worked out at 0.09.

Regarding A13G A35G U58C, the self-cleavage was determined as 0.2.

For A13G A21G C44U U76A, the self-cleavage came out at 0.09.

In the case of A13G A45G A56G, the self-cleavage was 0.45.

In the case of A13G A45U U66C U72C C81U, the self-cleavage was determined as 0.22.

In the case of A13G C59G U69C A77G, the self-cleavage came out at 0.16.

Consider A13G C29A U31C U43C, for which the self-cleavage is 0.14.

Turning to A13G G19A U72C U76C, the self-cleavage was determined as 0.16.

Consider A13G A57C U58C, for which the self-cleavage came out at 0.19.

On to A13G A35U U43C U49A U60C A64G C71U, for which the self-cleavage stood at 0.04.

Consider A13G C37A U49A A57G U58C, for which the self-cleavage amounted to 0.1.

For the variant A13G U25C U58A, the self-cleavage was found to be 0.16.

Regarding A13G C37U A47G U72A, the self-cleavage was found to be 0.28.

Regarding A13G C23U A35U G52C U54C, the self-cleavage was determined as 0.12.

A13G G24C U72C: the self-cleavage was 0.29.

Consider A13G G30A A75G, for which the self-cleavage was found to be 0.11.

With A13G U25C U72C, the self-cleavage stood at 0.31.

As for A13G A28G A75G, the self-cleavage is 0.38.

With A13G A65U U76C, the self-cleavage came out at 0.25.

For the variant A13G A20G U26A C29U U49C, the self-cleavage is 0.08.

Regarding A13G A28G U66C U78C, the self-cleavage is 0.18.

For the variant A13G A21U A35G C37A U41C U80C, the self-cleavage came to 0.25.

In the case of A13G A28U G53U, the self-cleavage was 0.44.

Consider A13G C23U A45G U58C, for which the self-cleavage turned out to be 0.98.

Regarding A13G G24A U60C U69A, the self-cleavage came out at 0.08.

In the case of A13G C29U U48A U72G U76C, the self-cleavage is 0.06.

As for A13G A20C U54C G73A, the self-cleavage was found to be 0.17.

In the case of A13G U25C U54C U60C A64G, the self-cleavage stood at 0.05.

For the variant A13G A21G C32U A45G U69A, the self-cleavage stood at 0.02.

For A13G A35C G53A U80A, the self-cleavage was 0.87.

With A13G A20G A47G U78C, the self-cleavage was 0.62.

A13G G36A U41C U60C: the self-cleavage is 0.27.

On to A13G G24A U25C C37U U60C, for which the self-cleavage was 0.12.

With A13G U26A A35U, the self-cleavage came to 0.24.

A13G C40U U58A U69C: the self-cleavage came to 0.02.

As for A13G U25C U41A U51A C71U U80A, the self-cleavage amounted to 0.04.

As to A13G A28G G73U, the self-cleavage was determined as 0.79.

With A13G A21G U51C C81U, the self-cleavage worked out at 0.33.

On to A13G A20G U51C U67C, for which the self-cleavage stood at 0.87.

Consider A13G A20G C29U G52U, for which the self-cleavage came to 0.3.

Take A13G A21G A47U: the self-cleavage worked out at 0.12.

As for A13G A45G C59U U67C, the self-cleavage turned out to be 0.03.

As for A13G G33U A35U U41C U60A, the self-cleavage is 0.16.

On to A13G A21G A35G U41A U67A, for which the self-cleavage is 0.39.

As for A13G C40A C50A, the self-cleavage was determined as 0.19.

For A13G A21G A45U U78C, the self-cleavage came out at 0.14.

Regarding A13G A21G G22C G24A U26C, the self-cleavage is 0.09.

A13G A28G U31C A35U A45U: the self-cleavage was determined as 0.18.

On to A13G G24A G53A U74A, for which the self-cleavage came out at 0.18.

As for A13G G33A A57G G73A, the self-cleavage was 0.31.

In the case of A13G A20U C50U A65C, the self-cleavage was found to be 0.05.

Regarding A13G G22A C44A, the self-cleavage was 0.18.

Regarding A13G A28G U66C, the self-cleavage was 0.36.

As to A13G A18U A28G U49A U58C U60C, the self-cleavage came out at 0.15.

On to A13G G22U A56U U66C U72A U76C, for which the self-cleavage is 0.04.

On to A13G A21G U41A A64C, for which the self-cleavage was 0.06.

A13G A20G C32A U60C A64G: the self-cleavage amounted to 0.05.

For A13G A21G U74C, the self-cleavage turned out to be 0.61.

Regarding A13G A57G U67C U76A, the self-cleavage came out at 0.19.

In the case of A13G A47G C68A U69C G73A, the self-cleavage stood at 0.23.

For the variant A13G A35U C40G U41C U43C A45U U67C, the self-cleavage came out at 0.06.

Consider A13G A21G U25C U69A, for which the self-cleavage is 0.29.

In the case of A13G G52A U74A, the self-cleavage turned out to be 1.24.

A13G C34U U72C U78A: the self-cleavage amounted to 0.72.

Turning to A13G G30A G46U, the self-cleavage is 0.17.

On to A13G A21G U26C A45U U60C A65G, for which the self-cleavage worked out at 0.

As to A13G A35G U43C A75C, the self-cleavage turned out to be 0.17.

For A13G A21G A28U A57G A64U, the self-cleavage was 0.1.

For the variant A13G A45U U58C U67C U76G, the self-cleavage was found to be 0.13.

Take A13G A20G U43C: the self-cleavage came to 0.23.

For the variant A13G A28U C32G G63A A64U U72C, the self-cleavage worked out at 0.08.

In the case of A13G A64G U69A G70U, the self-cleavage is 0.09.

For A13G C40A U41A U54C U60A U66C U74C, the self-cleavage amounted to 0.13.

As to A13G U25C U48C U60C A65C, the self-cleavage came to 0.34.

A13G A75G A77U: the self-cleavage is 0.93.

Regarding A13G C29U U41A A45U, the self-cleavage amounted to 0.07.

On to A13G U25C A45G A56G U80A, for which the self-cleavage was 0.17.

The values are drawn from the RNAGym collection of RNA variant scans (doi:10.1093/nar/gkz1192).
